Measurements published in the supplement of paper PMC10338343.
± gives the standard deviation. The full ranking holds about 5,500 sequences; the median of “pre-steady-state target cleavage rate” is about 0.1, and the highest 2% start at about 0.64. The list shows a part of the results, in another mix than the full data.

The sequences below were run on MIWI (PIWIL1) piRISC loaded with piRNA #2 (30 nt) (assay: pre-steady-state target cleavage rate (min^-1); MIWI and MILI are mouse PIWI proteins and EfPiwi is from a freshwater sponge; tags in brackets are library labels; higher = faster piRNA-guided slicing of the target). Settings: guide: piRNA #2 5'p-UUAGGUAACCCAGUAGAUCCAGAGGAAUUC; auxiliary factor: 500 nM mouse GTSF1.
Method in brief: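 Cleave-'n-Seq: a transcribed, DNA-blocked target RNA library (0.1 nM) was mixed with 1 nM active affinity-purified piRISC carrying one synthetic guide, with or without 500 nM GTSF1 partner protein, in HEPES–potassium acetate buffer at 33 °C for 0–8 or 0–960 min. Uncleaved targets were sequenced and normalised to depth and to weakly complementary targets. Three trials were pooled, and k3 was capped at 0.0001 min^-1. The pre-steady-state cleavage rate came from a burst-and-steady-state fit.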

Sequence | pre-steady-state target cleavage rate
CUUAUCCUCUGUGAUCUACUGGGUUACCUAA | 0.282 ± 0.027
CUUAAGCUCUGGAACUACUGGGUUACCAAA | 0.0717 ± 0.0099
CUUAACCUCGUGGAUCUACUGGGUUACCUAA | 0.11 ± 0.02
CUUAACCUCUGGAUCAACUGCGUUACCUAA | 0.311 ± 0.043
CUUAAGCUCUGGAUCUAGUGGGAUACCUAA | 0.021 ± 0.008
CUUAAGGACUGGAAGUACUGGGUUACCUAA | 0.0426 ± 0.034
CUUAACCUCUGGAUCUUGUGGGUUACCUAA | 0.00574 ± 0.0029
CUAUUCCUCUGCAUCUACUGGGUUACCAAA | 0.31 ± 0.052
CUAUUCGUCUGGAUCUUCUGGGUUACCUAA | 0.185 ± 0.033
CUAUUGCUCUGCAUCUACUGGGUUACCUAA | 0.253 ± 0.047
CAAUUGGACUGGAUCUACUGGGUUACCUAA | 0.245 ± 0.079
CUUAACCUCUCGAUCUACUGGGUAACCUAA | 0.264 ± 0.029
GAAAUCCUCUGGAUCUACUGGGAUACCUAA | 0.145 ± 0.026
CUUUUCACUCUGGAUCUACUGGGUUACCUAA | 0.194 ± 0.03
CUUAAGGAGAGGAUCUACUGGGUUACGCUAA | 0.0105 ± 0.0035
CUUUUGCUCUGGAUCUACUGGGUUACCUAA | 0.141 ± 0.022
GAAUUCCUCUGGGAUCUACUGGGUUACCUAA | 0.353 ± 0.049
GAAUUCCUCUCGAUCUUCUGGGUUACCUAA | 0.62 ± 0.064
CUUAAGGUCUCGAUCUACUGGGUUACGUAA | 0.375 ± 0.048
CUUAAGGAGACCACUACUGGGUUACCUAA | 0.00513 ± 0.0022
CUUAAGGUCUGGAUCUACUGGGUUACCUUAA | 0.115 ± 0.015
CUUUUCCUCUGGAUCUACAGGGUUACCUUA | 0.225 ± 0.025
GAAUUCCUCUGGAUCUAGUGGCUUACCUAA | 0.00853 ± 0.0027
CUUAAGGAGACCUUCUACUGGGUUAGGUAA | < 0.0001

Sequence | pre-steady-state target cleavage rate
CUCUUCCUCUGGAUCUACUGGGUUACCUAA | 0.366 ± 0.041
CAAUUGCUCUGGAUCUACUGGCUUACCUAA | 0.071 ± 0.014
CUUAACCUCUGCAUCUACUGGGUUACCUAA | 0.302 ± 0.026
CUUAAGGUCAGGAUCUACUGGGUUACCAAA | 0.0207 ± 0.009
GAAUUCCUCUGGAUCUACUGGGUUACGUUA | 0.425 ± 0.047
CUUAAGCUCUGGAUCUAUGGGUUACCUAA | 0.00603 ± 0.0032
GAAUUCCUCUGGAUCUUACUGGGUUACCUAA | 0.00516 ± 0.0036
CUUAAGGAGAGGAUCUACUGGGUUACCUAAA | 0.0413 ± 0.011
CUUAUGCUCUGGAUCUACUGGGUAACCUAA | 0.0806 ± 0.014
CUUAUCCUCUGGAUCUACUGCGUUAGCUAA | 0.21 ± 0.081
GAAUUCCUCUGGAUGUACUGGGAUACCUAA | 0.155 ± 0.03
CUUAAGGAGACGAUCUACUGGGUUACCUAA [g2:g19:cont:t1A] | 0.00528 ± 0.0031
CUUAAGGUCUCGAUCUACUGGGUUACCUUA | 0.0285 ± 0.0081
CUUUUCCUCUGGAUCUACUGGGAUUCCUAA | 0.087 ± 0.033
CUUAAGCUCUGGAUCUGCUGGGUUACCUAA | 0.0696 ± 0.01
GAAUUCCAGAGGAUCUACUGGGUUACCUAA | 0.273 ± 0.042
CUUAUCCUCUGGAUCUACUGGGUUACUAA | 0.179 ± 0.04
CUAUUCCUCUGGAUCUACUGCCAUACCUAA | 0.00393 ± 0.0037
CUUAAGCUCUGGAUCUACUGGGGUACCUAA | 0.0144 ± 0.0056
CUAUUCGACUGGAUCUACUGGGUUACCUAA | 0.332 ± 0.058
CUUUUCCUCUUGGAUCUACUGGGUUACCUAA | 0.346 ± 0.033
GAUUUCCUCUGGAUCUACUGGGAUACCUAA | 0.115 ± 0.025
CUUAACCUCUGGAUCAACUGGGUUACGUAA | 0.34 ± 0.024
CUUAAGGAGACCUUCAACUCGGUUACCUAA | < 0.0001

Sequence | pre-steady-state target cleavage rate
CUAUUCCUCUGGAUCUAGUGGGUUACCUAA | 0.203 ± 0.027
CUUAAGCUCUGGAUCUACUGGGUUUGCUAA | 0.176 ± 0.023
CUUAUCCUCUGGAUCUACUGGGUUACCGAA | 0.386 ± 0.082
CUAUUCCUCAGGAUCUACUGGGUUACCUUA | 0.513 ± 0.062
CUUAUCCUCUGGAUCAUACUGGGUUACCUAA | 0.00729 ± 0.0036
GAAUUCCUCUGGAUCUACUGGGUAACCUAA | 0.179 ± 0.04
CUUAAGGUCUGGUUCUACUGGGUUACCUAA | 0.2 ± 0.023
CUUAACCGCUGGAUCUACUGGGUUACCUAA | 0.274 ± 0.027
CUUUUCCUCUGGAACUACUCGGUUACCUAA | 0.1 ± 0.013
CUAGUUCCUCUGGAUCUACUGGGUUACCUAA | 0.139 ± 0.037
CUUAACCUCUGGAUCUACUGGGUAUACCUAA | 0.155 ± 0.015
CUUAACGUCUGGAUCUACUGCGUUACCUAA | 0.344 ± 0.025
CAAUUCCUCUGGAUCUACUGGGAUAGCUAA | 0.185 ± 0.074
GAAUUCCUCUGGCUCUACUGGGUUACCUAA | 0.586 ± 0.038
CUAUUCCUCUGGAUCUAGUGGCUUACCUAA | 0.00791 ± 0.004
CUUUUCCACAGGAUCUACUGGGUUACCUAA | 0.324 ± 0.048
CUUAACCACUGGAUCUACUGGGUUACCUAA | 0.37 ± 0.04
CUAUUCCUCUGGAUCUAUUGGGUUACCUAA | 0.288 ± 0.038
GAAUUCCUCUGGAUCUACGGGUUACCUAA | 0.0629 ± 0.012
CUAUUGCUCUGGAUCUACUGGGUAACCUAA | 0.0644 ± 0.014
GAAUUCGUCUGGAUCUUCUGGGUUACCUAA | 0.225 ± 0.043
CUUAUGGACUGGAUCUACUGGGUUACCUAA | 0.235 ± 0.056
GAAUUCCACUGGAUCUACUGGGUUUCCUAA | 0.453 ± 0.087
